The results in this text go back to PubChem BioAssay AID1346428 (National Center for Advancing Translational Sciences (NCATS), 2018).

The campaign covered roughly 48,000 compounds. About 1,200 (2.5%) were called active. About 2% were inconclusive and are not listed.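 The calls were made as follows: active = activation of at least 60% and not above a set upper limit (about 1 call in 100 departs from these limits); inconclusive = activation of 40% to 60%, or above that upper limit; inactive = activation under 40%.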 This is one part of the list.

This experiment concerns the target Probable G-protein coupled receptor 32 (Homo sapiens) (UniProt O75388). Briefly: qHTS for Agonists of Human Resolvin D1 Receptor DRV1. The settings on record: CHO-K1 GPR32 beta-arrestin PathHunter luminescence, 90 min; at 76.9 µM; active compounds read high; zero percent set by DMSO-only wells. The method, boiled down: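 Using DMSO wells as EC0, agonist-induced signal was taken as chemiluminescence from beta-Gal reconstituted upon beta-arrestin recruitment to GPR32 in CHO-K1 cells after 90 min compound treatment.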
Chain of UniProt O75388 (O75388 whole entry, looked up): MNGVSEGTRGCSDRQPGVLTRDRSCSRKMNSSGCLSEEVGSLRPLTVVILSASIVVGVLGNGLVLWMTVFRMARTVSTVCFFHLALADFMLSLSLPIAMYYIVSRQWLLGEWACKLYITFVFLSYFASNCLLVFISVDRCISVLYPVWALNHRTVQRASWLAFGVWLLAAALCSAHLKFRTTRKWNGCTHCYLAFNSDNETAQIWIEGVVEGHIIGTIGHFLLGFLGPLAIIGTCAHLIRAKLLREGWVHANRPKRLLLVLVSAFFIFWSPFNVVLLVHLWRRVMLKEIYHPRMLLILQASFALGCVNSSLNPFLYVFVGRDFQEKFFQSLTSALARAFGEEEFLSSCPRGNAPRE
In general terms: Quantitative high-throughput screening tests each substance at several concentrations.
As to `CCn1c(C)c(C)c2cc(C(=O)NCCc3cc(OC)c(OC)c(OC)c3)ccc21`, the activation is inactive: -4.71%.

With `CCc1ccc(S(=O)(=O)c2nnn3c2nc(NCc2cccs2)c2sccc23)cc1`, the activation is inactive: -13%.

For `CN1CCN(C(c2ccc(F)cc2)c2sc3nc(-c4ccco4)nn3c2O)CC1` (centres undefined), the activation is inactive: 2.89%.

As to `Cc1cccc(C(=O)Nc2cccc(C(=O)OCc3cc(=O)n4c5c(sc4n3)CCCC5)c2)c1`, the activation was inactive: -29.5%.

Regarding `COc1ccc(-c2c3c(=O)n(C)c(=O)n(C)c3c3c(-c4ccccc4)nc4ccccc4n23)cc1`, the activation is inactive: -11%.

As for `CC1(C)CCC=[N+]1[O-]`, the activation is inactive: 0.0116%.

Take `O=C(Nc1ccccc1F)C(Cc1ccccc1)n1cccc1` (centres undefined): the activation is inactive: -21.1%.

Consider `O=C(Nc1ccc2nc(SCC(=O)N3CCOCC3)sc2c1)c1ccc(F)cc1`, for which the activation was inactive: 2.63%.

Turning to `CNC(=O)c1cc2c(n(-c3ccc(C)cc3)c1=O)CC(C)(C)CC2=O`, the activation is inactive: 12.4%.

Regarding `Cc1cc(C)c(Nc2nn3c(=O)c4cc5c(cc4nc3s2)OCO5)c(C)c1`, the activation was inactive: 6.17%.

`COc1cc(OC)cc(-c2nc3nc(C)c(CCC(=O)Nc4ccc(Cl)cc4)c(C)n3n2)c1`: the activation was inactive: 7.13%.

As to `CCOC(=O)c1cnc2c(C)c(Cl)ccc2c1Nc1ccc(C)cc1C`, the activation is inactive: 35.8%.

`CCN(C(=O)c1cc2c(Cl)nc3ccccc3c2s1)c1cccc(Cl)c1`: the activation is inactive: 0.844%.

As for `CC1=C(C(=O)Nc2cccnc2)C(c2ccc(F)cc2)n2nc(SCc3ccccc3F)nc2N1` (centres undefined), the activation is inactive: 4.49%.

In the case of `CN1c2cc(Cl)ccc2-c2nc(SCC(=O)Nc3ccc(F)cc3F)ncc2S1(=O)=O`, the activation is inactive: -0.774%.

Regarding `COc1ccc(OC2CCN(S(=O)(=O)c3ccc(OC)cc3)CC2)cc1`, the activation was inactive: -14.1%.

As for `COc1cc(NC(=O)CN(C)S(=O)(=O)c2ccc3[nH]c4c(c3c2)CCCC4)cc(OC)c1OC`, the activation is active: 105%.

Consider `O=C(NC1CCCC1)c1ccc(CSc2nc3ccncc3n2Cc2ccccc2F)cc1`, for which the activation was inactive: -16%.

For the molecule `Cc1cc(NC(=O)CSc2nc3c([nH]c4ccccc43)c(=O)n2-c2cccc(Cl)c2)no1`, the activation was inactive: -2.7%.

Turning to `CCn1cc(C(=O)O)c(=O)c2cc(F)c(N3CCNCC3)nc21`, the activation is inactive: 3.22%.

On to `Clc1ccc(-c2noc3ncnc(NCCCN4CCN(c5ccccc5)CC4)c23)cc1`, for which the activation is inactive: 39.9%.

With `COc1ccccc1C(=O)NCc1ccc2c(c1)CCN2C(=O)c1ccncc1`, the activation was inactive: -20.4%.

With `CCOC(=O)C1CCCN(C(=O)C2CCN(c3nnc(C)c4c(C)n(-c5ccccc5)nc34)CC2)C1` (centres undefined), the activation is inactive: -7.27%.

On to `CCOc1ccccc1NC(=O)C(Cc1ccccc1)NS(=O)(=O)c1ccc(Br)s1` (centres undefined), for which the activation was inactive: -11.1%.

Regarding `Cc1ccc(C)c(N2CCN(C(=O)C3CCN(S(=O)(=O)c4cn(C)cn4)CC3)CC2)c1`, the activation was inactive: -13.3%.

For the molecule `CCc1ccc(CNC(=O)C(CC)n2ccc3cc(S(=O)(=O)N4CCCCC4)ccc32)cc1` (centres undefined), the activation was inactive: 4.81%.

On to `COc1ccc(CNS(=O)(=O)c2cc(C(=O)Nc3cc(Cl)cc(Cl)c3)ccc2F)cc1`, for which the activation was inactive: 9.3%.

In the case of `CC(=O)OCC(=O)NCCCOc1cccc(CN2CCCCC2)c1`, the activation is inactive: 10.9%.

`Cc1ccc(Cn2c(C(=O)O)c(CNCc3ccccc3Cl)c3ccc(C)cc32)cc1`: the activation was inactive: 13.4%.

`O=C(O)C1CCNCC1`: the activation is inactive: -3.72%.

As to `CCOC(=O)C1CCN(c2ncnc3c2c(-c2ccccc2)cn3-c2cccc(C)c2)CC1`, the activation was inactive: -37.9%.

In the case of `Cc1oc2c(c(C)cc3oc(=O)c(CC(=O)NCCc4ccccc4F)c(C)c32)c1C`, the activation was inactive: -13%.

With `CCc1ccc(NC(=O)CN2CCN(Cc3ccccc3)S2(=O)=O)cc1`, the activation was inactive: -5.26%.

`Cc1cccc(NC(=O)CCCn2c(C)c3cnn(-c4ccccc4)c(=O)c3c2C)c1C`: the activation was inactive: -21.7%.

With `Cc1ccccc1-n1c(SCC(=O)Nc2ccc(Cl)cc2F)nnc1-c1cc2occc2n1C`, the activation is inactive: -18.3%.

As to `Cc1ccc(CN2CCc3nc(N4CCN(c5ncccn5)CC4)ncc3C2)cc1`, the activation is inactive: -30.4%.

For the molecule `COc1ccc(C2=CC(c3ccc(F)cc3)n3ncc(C(=O)Nc4ccc(C)cc4)c3N2)cc1` (centres undefined), the activation was inactive: -0.925%.

Turning to `Cc1ccc(C)n1-c1nnc(N2CCCC(C(=O)NCc3ccc(Cl)cc3)C2)s1` (centres undefined), the activation was inactive: -25.5%.

Turning to `Cc1ccc(OCC(=O)Nc2ccc(S(=O)(=O)Nc3cc(C)nc(C)n3)cc2)c(Br)c1`, the activation is inactive: 44.7%.

With `CCOc1ccccc1CNS(=O)(=O)c1ccc2c(c1)CCCN2C(C)=O`, the activation is inactive: 9.01%.

As to `O=C(Cn1ccn(-c2ccc(F)c(F)c2)c(=O)c1=O)Nc1ccccc1F`, the activation is inactive: -11.1%.

For `Cc1ccc(-c2nc3cc(C(C)C)ccc3o2)cc1NC(=O)c1cc2ccccc2o1`, the activation is inactive: -11%.

As for `Cc1ccc(N(CC(=O)NCCc2ccc(Cl)cc2)S(=O)(=O)N(C)C)cc1`, the activation was inactive: -3.26%.

`O=C(CCSc1nc(-c2ccco2)cc(C(F)(F)F)n1)Nc1cccc(O)c1`: the activation was inactive: 34.9%.

Consider `O=C(Nc1ccc2oc(-c3cccnc3)nc2c1)c1cccc(Br)c1`, for which the activation was inactive: -1.94%.

With `COc1cccc(NC(=O)CSc2nc3c(oc4ccccc43)c(=O)n2Cc2ccco2)c1`, the activation is inactive: -15.9%.

With `COc1cc(-c2noc(CN3CCN(c4ccccc4)CC3)n2)cc(OC)c1OC`, the activation was inactive: 12%.

As to `CC(C)CCNC(=O)CCCN1C(=O)c2ccccc2Sc2ncccc21`, the activation is inactive: -16.6%.

As for `Cc1cn2c(=O)cc(COC(=O)c3cccc(NC(=O)COc4ccccc4Cl)c3)nc2s1`, the activation is inactive: -15.3%.

As for `COc1cc(OC)cc(C(=O)Oc2c(Sc3ccccc3)c(C)nn2C(C)(C)C)c1`, the activation was inactive: -10.8%.

`CCc1ccc(C2c3c(-c4ccccc4O)n[nH]c3C(=O)N2Cc2ccncc2)cc1` (centres undefined): the activation is inactive: -2.24%.

For `Cc1cccc(NC(=O)C(=O)NCC(c2ccc3c(c2)OCO3)N2CCOCC2)c1C` (centres undefined), the activation is inactive: -8.69%.

With `CCOC(=O)c1ccccc1NC(=O)N1CCc2c(sc(C)c2CC)C1c1ccccc1` (centres undefined), the activation is inactive: -7.07%.

In the case of `COc1ccccc1-c1nc2c(c(SCc3cccc(Cl)c3)n1)Cc1c(CO)cnc(C)c1O2`, the activation is inactive: 7.85%.
